The values below come from a collection of fitness landscapes (doi:10.1126/science.1257360).

B1: PhoQ; a variant is named by its letters at X, in order, P23837 (parent)
chain: MKKLLRLFFPLSLRVRFLLATAAVVLVLSLAYGMVALIGYSVSFDKTTFRLLRGESNLFYTLAKWENNKLHVELPENIDKQSPTMTLIYDENGQLLWAQRDVPWLMKMIQPDWLKSNGFHEIEADVNDTSLLLSGDHSIQQQLQEVREDDDDAEMTHSVAVNVYPATSRMPKLTIVVVDTIPVELKSSYMVWSWFIYVLSANLLLVIPLLWVAAWWSLRPIEALAKEVRELEEHNRELLNPATTRELTSLVRNLNRLLKSERERYDKYRTTLTDLTHSLKTPLXXLQXXLRSLRSEKMSVSDAEPVMLEQISRISQQIGYYLHRASMRGGTLLSRELHPVAPLLDNLTSALNKVYQRKGVNISLDISPEISFVGEQNDFVEVMGNVLDNACKYCLEFVEISARQTDEHLYIVVEDDGPGIPLSKREVIFDRGQRVDTLRPGQGVGLAVAREITEQYEGKIVAGESMLGGARMEVIFGRQHSAPKDE

This is one part of the list.

Variants of B1 are the subject of this assay. Put plainly: enrichment ratio after two sorts for PhoP signalling (ratio (wild type AVST 3.29)); higher = more functional. To be noted: with PhoP (E. coli).
Regarding SRPM, the enrichment ratio is no more than 0.25.

Take RCRR: the enrichment ratio was no more than 0.25.

For the variant TRYC, the enrichment ratio is no more than 0.25.

For the variant DRNN, the enrichment ratio is no more than 0.25.

On to FRHG, for which the enrichment ratio was no more than 0.25.

Turning to RMVW, the enrichment ratio is no more than 0.25.

Consider FKCD, for which the enrichment ratio was no more than 0.25.

For WWTW, the enrichment ratio was no more than 0.25.

For LRLN, the enrichment ratio is no more than 0.25.

Take HQHH: the enrichment ratio was no more than 0.25.

As for FPII, the enrichment ratio is no more than 0.25.

As for LARW, the enrichment ratio is no more than 0.25.

Turning to MLSF, the enrichment ratio was 0.952.

With RPYH, the enrichment ratio is no more than 0.25.

Consider HRMH, for which the enrichment ratio is no more than 0.25.

On to FFAY, for which the enrichment ratio is no more than 0.25.

SGNI: the enrichment ratio is 2.01.

On to HGKT, for which the enrichment ratio is no more than 0.25.

As for NKND, the enrichment ratio is no more than 0.25.

For the variant RSYD, the enrichment ratio was no more than 0.25.

As to QRMR, the enrichment ratio was no more than 0.25.

In the case of MSAM, the enrichment ratio was 10.5.

As to YLNA, the enrichment ratio was no more than 0.25.

In the case of RTHI, the enrichment ratio is no more than 0.25.

As to FDEA, the enrichment ratio was no more than 0.25.

With LCAY, the enrichment ratio turned out to be 2.56.

Consider EQQG, for which the enrichment ratio was no more than 0.25.

Regarding KRHN, the enrichment ratio was no more than 0.25.

Turning to NHGY, the enrichment ratio was no more than 0.25.

Regarding ISIL, the enrichment ratio is no more than 0.25.

Turning to EMPR, the enrichment ratio was no more than 0.25.

As for ETAT, the enrichment ratio was no more than 0.25.

As to PARL, the enrichment ratio was no more than 0.25.

For the variant WATN, the enrichment ratio is no more than 0.25.

For the variant MERC, the enrichment ratio is no more than 0.25.

Consider EFRF, for which the enrichment ratio is no more than 0.25.

For the variant DHMR, the enrichment ratio was no more than 0.25.

For the variant LTVT, the enrichment ratio is no more than 0.25.

For the variant GKSV, the enrichment ratio was no more than 0.25.

As to CFSV, the enrichment ratio is no more than 0.25.

Regarding HYTE, the enrichment ratio is no more than 0.25.

For AMNQ, the enrichment ratio is no more than 0.25.

MTGI: the enrichment ratio worked out at 11.7.

As for FNGH, the enrichment ratio was no more than 0.25.

For LCDA, the enrichment ratio is no more than 0.25.

Turning to AQST, the enrichment ratio came to 5.3.

For the variant MFLG, the enrichment ratio worked out at 0.27.

With QAWH, the enrichment ratio was 31.4.

Regarding WRNG, the enrichment ratio was no more than 0.25.

As to MHPA, the enrichment ratio is no more than 0.25.

Turning to NWCW, the enrichment ratio was no more than 0.25.

For the variant QVAR, the enrichment ratio is no more than 0.25.

For HRYT, the enrichment ratio is no more than 0.25.

Take PGSF: the enrichment ratio was no more than 0.25.

For the variant RAGG, the enrichment ratio is no more than 0.25.

On to TGSC, for which the enrichment ratio worked out at 20.2.

Take ARDQ: the enrichment ratio is no more than 0.25.

On to YKPC, for which the enrichment ratio was no more than 0.25.

On to KYLY, for which the enrichment ratio is no more than 0.25.

As to KIPE, the enrichment ratio is no more than 0.25.

Turning to EITW, the enrichment ratio was no more than 0.25.

Consider SVTE, for which the enrichment ratio was no more than 0.25.

As to PKMG, the enrichment ratio is no more than 0.25.

Take WPRE: the enrichment ratio is no more than 0.25.

For IPQH, the enrichment ratio was no more than 0.25.

RCQG: the enrichment ratio was no more than 0.25.

As to YVVH, the enrichment ratio is no more than 0.25.

On to NVYK, for which the enrichment ratio was no more than 0.25.

On to EHQV, for which the enrichment ratio is no more than 0.25.

As for AKND, the enrichment ratio was no more than 0.25.

Turning to KYYA, the enrichment ratio is no more than 0.25.

In the case of RFHT, the enrichment ratio was no more than 0.25.

RYLQ: the enrichment ratio was no more than 0.25.

For the variant YQYY, the enrichment ratio is no more than 0.25.

As for ISKD, the enrichment ratio was no more than 0.25.

For GELI, the enrichment ratio worked out at 8.82.

For IASV, the enrichment ratio is no more than 0.25.

RQCF: the enrichment ratio is no more than 0.25.

On to WTWV, for which the enrichment ratio is no more than 0.25.

Regarding ADYF, the enrichment ratio is no more than 0.25.

Regarding KAMY, the enrichment ratio was no more than 0.25.

Take KKLE: the enrichment ratio was no more than 0.25.

As to GVFN, the enrichment ratio is no more than 0.25.

For PTAI, the enrichment ratio is no more than 0.25.

Turning to GGPN, the enrichment ratio was no more than 0.25.

As for RIAL, the enrichment ratio is no more than 0.25.

For the variant SRDW, the enrichment ratio was no more than 0.25.

In the case of DFAT, the enrichment ratio is no more than 0.25.

For QCGH, the enrichment ratio is 24.2.

Turning to RTWE, the enrichment ratio is no more than 0.25.

For the variant VPCK, the enrichment ratio was no more than 0.25.

HNII: the enrichment ratio is no more than 0.25.

Turning to WDVL, the enrichment ratio is no more than 0.25.

Take NQME: the enrichment ratio is no more than 0.25.

Turning to LVWV, the enrichment ratio was no more than 0.25.

In the case of RGAY, the enrichment ratio was no more than 0.25.

Turning to GHQR, the enrichment ratio is no more than 0.25.

With QCVM, the enrichment ratio was determined as 0.317.

As for PDLL, the enrichment ratio is no more than 0.25.

Consider KFAA, for which the enrichment ratio is no more than 0.25.

Regarding LNMR, the enrichment ratio was no more than 0.25.

For WPYT, the enrichment ratio was no more than 0.25.

IYEV: the enrichment ratio is no more than 0.25.

In the case of SPIH, the enrichment ratio was no more than 0.25.

With FAPL, the enrichment ratio was no more than 0.25.

For VILF, the enrichment ratio is no more than 0.25.

As for GGVP, the enrichment ratio was no more than 0.25.

As to MCHL, the enrichment ratio worked out at 6.12.

Regarding ESRE, the enrichment ratio is no more than 0.25.

For the variant DRYV, the enrichment ratio was no more than 0.25.

For the variant TSFK, the enrichment ratio is no more than 0.25.

As to HMFH, the enrichment ratio is no more than 0.25.

As to IYGA, the enrichment ratio is no more than 0.25.

Turning to HKMK, the enrichment ratio was no more than 0.25.

Consider YTRM, for which the enrichment ratio was no more than 0.25.

For the variant PRKQ, the enrichment ratio was no more than 0.25.

VMLQ: the enrichment ratio is no more than 0.25.

LCMR: the enrichment ratio is no more than 0.25.

As to RPDF, the enrichment ratio is no more than 0.25.

Regarding INCL, the enrichment ratio is 1.56.

Take YCSP: the enrichment ratio was no more than 0.25.

With TGFR, the enrichment ratio is no more than 0.25.

In the case of WLHN, the enrichment ratio is no more than 0.25.

For DGGH, the enrichment ratio is no more than 0.25.

As to IDEH, the enrichment ratio is no more than 0.25.

As for WFQE, the enrichment ratio is no more than 0.25.

KANE: the enrichment ratio is no more than 0.25.

As for GSFE, the enrichment ratio is no more than 0.25.

For the variant SETD, the enrichment ratio was no more than 0.25.

In the case of ETYW, the enrichment ratio is no more than 0.25.

On to IRPW, for which the enrichment ratio was no more than 0.25.

Take MWFW: the enrichment ratio was no more than 0.25.

Take GKRS: the enrichment ratio is no more than 0.25.

Turning to LWLD, the enrichment ratio is no more than 0.25.

SLSM: the enrichment ratio was 8.94.

Consider PMLI, for which the enrichment ratio is no more than 0.25.

On to EVQT, for which the enrichment ratio is no more than 0.25.

As for LVQQ, the enrichment ratio is no more than 0.25.

As to MTVL, the enrichment ratio turned out to be 1.12.

Take DGQW: the enrichment ratio was no more than 0.25.

Consider GFKW, for which the enrichment ratio is no more than 0.25.

In the case of DIHS, the enrichment ratio was no more than 0.25.

Turning to SMQE, the enrichment ratio was no more than 0.25.

With HWFS, the enrichment ratio was no more than 0.25.

For WAYL, the enrichment ratio was no more than 0.25.

Take SRGE: the enrichment ratio is no more than 0.25.

In the case of LYCC, the enrichment ratio is no more than 0.25.

As for MDGN, the enrichment ratio is no more than 0.25.

LQLD: the enrichment ratio is no more than 0.25.

For EEVY, the enrichment ratio is no more than 0.25.

As to GQLQ, the enrichment ratio was 5.21.

For the variant HGHQ, the enrichment ratio was no more than 0.25.

Consider HAKI, for which the enrichment ratio was no more than 0.25.
